Data on 5 molecules can be found in article PMC4207660, “Identification and Characterization of Hundreds of Potent and Selective Inhibitors of Trypanosoma brucei Growth from a Kinase-Targeted Library Screening Campaign” (PLoS Neglected Tropical Diseases, 2014).

Series [1] deals with T. brucei brucei parasites (Lister 427 strain). The series is described as follows: Dose response growth inhibition assay (resazurin, 72 h). As to conditions: Trypanosoma brucei, read-out: Tbb pEC50 (converted). The format is cell-based. On the procedure: Greiner sterile black clear bottom 384-well assay plates were pre-dispensing with 200 nL of compound in each well, from master plates at 1 mM (100% DMSO) containing selection from the GSK compound collection. Controls of 0% response (control 1, 200 nL of 100%DMSO) and 100% response (control 2, 200 nL of 1 mM pentamidine) were included in each assay plate in columns 6 and 18, respectively. Plates containing 200 nL of 100% DMSO were included randomly in the assay, to assess quality through all process. […] After this period, 10 µL of 200 µM resazurin solution in prewarmed HMI-9 were added to each well, and plates were allowed to incubate 2 hours more prior fluorescence reading in a Wallac EnVision Multilabel Plate Reader (Perkin-Elmer). Raw fluorescent data from the Envision plate reader were uploaded into GSK HTS database (ActivityBase). Activity of each well was normalized as a percentage of inhibition per-plate basis using the following equation: [drawing 1]
For dose-response experiments, serial compound dilutions of selected hits from the primary campaign were plotted against compound concentration. Dose response master plates were prepared by 3-fold dilutions (starting with 10 mM DMSO stock solutions), providing 11 concentrations. From these master plates, 200 nL per well was stamped in final assay plates, including the same controls describe in the primary single shot assay. Compounds were dispensed as serial dilution curve format, with 11 points at 3-fold dilution and 40 µM as starting top concentration (n = 2). Growth inhibition assay was performed as described in previous assay.
A 4-parameter equation describing a sigmoidal dose-response curve was then fitted with an adjustable baseline using ActivityBase XE Runner software. Fitting of dose-response curves and EC50 determination were normalized as percentage of inhibition based on controls. The curve-fit model was based on a 4-parameter equation: [drawing 2]
Trypanosome cell culture. […]
(In general: Resazurin is reduced to fluorescent resorufin, in cell work by metabolically active cells.)

Series [2] has as its target Cytochrome P450 (CYP450) (Homo sapiens, UniProt P08684). The series is described as follows: Cytochrome P450 inhibition profile. As to conditions: Measured. The format is in vitro ADME. On the procedure:
The P450 inhibition profile of the inhibitors was determined as previously described.

Series [3] in a line: CLND kinetic solubility assay. Type of series: physicochemical. The following applies: pH 7.4, aqueous buffer, kinetic from dmso stock, Measured, read-out: Aq Sol. The method, then: 5 µL of 10 mM DMSO stock solution was diluted to 100 µL with pH 7.4 phosphate buffered saline, equilibrated for 1 hour at room temperature, filtered through Millipore MultiscreenHTS-PCF filter plates (MSSL BPC). The filtrate was quantified by suitably calibrated flow injection Chemi-Luminescent Nitrogen Detection.

Series [4] is described as follows: ChromlogD assay. The method, then:
The Chromatographic Hydrophobicity Index (CHI)[22] values were measured using reversed phase HPLC column (Luna C18 (2), Phenomenex, UK) with a fast acetonitrile gradient at starting mobile phase of pH = 7.4. CHI values are derived directly from the gradient retention times by using a calibration line obtained for standard compounds. The CHI value approximates to the volume % organic concentration when the compound elutes. […] The average error of the assay is ±3 CHI unit or ±0.25 ChromlogD.

Series [5] relates to HepG2 cells. The series can be described thus: Cytotoxicity assay (Cell Titer Glo, 48 h). As to conditions: HepG2 cytotoxicity. On the procedure: This assay was used as selectivity assay, and selected hits from the primary were test in dose response concentration against HepG2 in order to identify the level of host cell cytotoxicity. Dose response starting at 10 mM and with 3-fold dilutions for 11 points, were made in 1,536-well master plates. 50 nL per well from them were stamped in final assay plates. The human biological samples were sourced ethically and their research use was in accord with the terms of informed consent.
Cell density was adjusted to 60,000 cells/mL as working concentration in prewarmed Eagle's MEM medium. Seeding density was be checked to ensure that new monolayers are not more than ∼ 50% confluent at the time of seeding (typically 3,000 cells per well), before completing preparation of plates. […] Viability was determined by Cell Titer Glo Kit (Promega) according to manufacturer's instructions: briefly, reconstituted Cell Titer Buffer was equilibrated to room temperature prior its use and 5 µL per well were dispensed with a Multidrop Combi Reagent Dispenser. Contents were mixed on a plate orbital shaker and incubated for 10 min at room temperature, to allow the signal to stabilize before luminescence reading on ViewLux Plate Reader (Perkin-Elmer).
Raw Luminescence data from the ViewLux reader were uploaded into GSK HTS database (ActivityBase). […]
On the technique in general: In ATP-based viability assays light output follows the ATP content of the culture.

The target in series [6] is T1, Human Serum Albumin (HSA) (Homo sapiens, UniProt P02768).
T1 construct: purchased Chiral Technologies, France
The series can be described thus: Protein binding assay (HPLC stationary phase), HSA. The format is in vitro ADME. The following applies: Measured. The method, then: Chemically bonded Human Serum Albumin (HSA) and Alpha-1-acidglycoprotein HPLC stationary phases (Chiral Technologies, France) were used for measuring compounds' binding to plasma proteins, applying linear gradient elution up to 30% iso-propanol. The run time was 6 min, including the re-equilibration of the stationary phases with the 50 mM pH7.4 ammonium acetate buffer. The obtained gradient retention times were standardised using a calibration set of mixtures as described in the references. The average standard error of the assay depends on the binding strength and kinetics of the compounds.

Setting [7] is: CYP3A4, VG substrate, read-out: CYP3A4VG pXC50 (converted).
Setting [8] is: CYP3A4, VR substrate, read-out: CYP3A4VR pXC50 (converted).

≈ marks a conversion by molar mass, not a printed value. Like-named read-outs stand apart in the source and are kept apart here.

With `O=C(c1ccc(-c2ccnc(NCCc3ccc(O)cc3)n2)s1)N1CCNCC1` [NEU-0001172], the EC50 in series [1] (T. b. brucei growth inhibition) was 79.4 nM. Besides, the IC50 in series [2] (setting [7]) was 39800 nM.
`O=C1Nc2ccc3ncsc3c2/C1=C/Nc1ccc2c(c1)CS(=O)(=O)C2` [NEU-0001179]: the EC50 in series [1] (T. b. brucei growth inhibition) was 126 nM. Further, in series [3], the solubility kinetic at 1 h stood at 16 µM (≈ 6.14 µg/mL). In addition, the IC50 in series [2] (setting [7]) is 2510 nM. In series [4], this molecule registered a PFI of 5.64. In addition, the “HepG2 pTC50” value in series [5] is <4.
With `CN(C)Cc1ccc(-c2cc3c(-c4cnn(C)c4)ccnc3[nH]2)cc1` [NEU-0001200], the EC50 in series [1] is 20 nM. Further, the IC50 in series [2] (setting [7]) is 2510 nM; in series [2] (setting [8]) it was > 50100 nM. This molecule yielded a PFI in series [4] of 6.88. The molecule further displayed an HSA % binding in series [6] of 95.7%. Besides, in series [5], the “HepG2 pTC50” value came out at 4.3.
The molecule `Cn1cc(-c2cnc3[nH]cc(-c4cccc(C#N)c4)c3c2)cn1` [NEU-0001207] showed an HSA % binding in series [6] of 95.36%.
For `Cn1c(=O)n(-c2ccc(C(C)(C)C#N)cc2)c2c3cc(-c4cnc(N)c(N)c4)ccc3ncc21` [NEU-0001217], the solubility kinetic at 1 h in series [3] (phosphate buffered saline) was found to be 5 µM (≈ 2.25 µg/mL). For the same molecule, the IC50 in series [2] (setting [7]) is 5010 nM; in series [2] (setting [8]), 25100 nM. Moreover, in series [4], the PFI is recorded as 9.18. The HSA % binding in series [6] turned out to be 92.8%.
